Drawing on publication PMC10160066, this text covers binding for eight molecules.

Sequences of proteins named here, by UniProt entry; tags and fusion partners are left off.
UniProt P93207: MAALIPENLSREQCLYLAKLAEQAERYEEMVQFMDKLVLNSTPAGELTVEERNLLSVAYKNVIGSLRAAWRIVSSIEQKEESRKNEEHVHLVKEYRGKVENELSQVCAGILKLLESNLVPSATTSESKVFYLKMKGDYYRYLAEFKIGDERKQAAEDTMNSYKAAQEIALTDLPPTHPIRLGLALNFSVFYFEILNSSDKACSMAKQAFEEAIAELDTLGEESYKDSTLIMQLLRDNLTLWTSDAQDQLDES
UniProt P93208: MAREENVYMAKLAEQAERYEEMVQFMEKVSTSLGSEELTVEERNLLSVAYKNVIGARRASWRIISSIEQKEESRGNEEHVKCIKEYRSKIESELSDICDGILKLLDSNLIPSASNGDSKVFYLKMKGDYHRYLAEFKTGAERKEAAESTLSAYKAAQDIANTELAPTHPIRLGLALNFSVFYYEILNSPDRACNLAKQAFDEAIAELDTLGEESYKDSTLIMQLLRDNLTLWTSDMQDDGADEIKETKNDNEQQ
UniProt P42652: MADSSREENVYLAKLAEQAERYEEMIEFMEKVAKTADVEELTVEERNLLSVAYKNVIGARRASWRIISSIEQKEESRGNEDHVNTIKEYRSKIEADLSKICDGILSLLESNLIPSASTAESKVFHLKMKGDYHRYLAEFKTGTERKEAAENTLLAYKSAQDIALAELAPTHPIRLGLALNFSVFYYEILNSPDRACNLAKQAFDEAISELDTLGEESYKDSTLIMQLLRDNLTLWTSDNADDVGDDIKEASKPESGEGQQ
UniProt P93211: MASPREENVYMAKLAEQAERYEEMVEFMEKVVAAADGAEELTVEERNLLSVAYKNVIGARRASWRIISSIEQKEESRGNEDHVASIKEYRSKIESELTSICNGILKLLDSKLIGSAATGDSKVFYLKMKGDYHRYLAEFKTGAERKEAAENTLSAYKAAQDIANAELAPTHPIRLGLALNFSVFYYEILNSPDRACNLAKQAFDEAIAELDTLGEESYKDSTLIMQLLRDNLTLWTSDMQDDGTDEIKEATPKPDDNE
UniProt P93212: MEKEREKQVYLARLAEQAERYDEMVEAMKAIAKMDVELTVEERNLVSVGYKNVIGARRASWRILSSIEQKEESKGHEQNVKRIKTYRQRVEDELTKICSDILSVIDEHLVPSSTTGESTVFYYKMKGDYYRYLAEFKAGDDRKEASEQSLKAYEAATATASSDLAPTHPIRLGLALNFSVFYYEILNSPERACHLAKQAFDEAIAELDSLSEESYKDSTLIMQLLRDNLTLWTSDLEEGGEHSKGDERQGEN
UniProt P93213: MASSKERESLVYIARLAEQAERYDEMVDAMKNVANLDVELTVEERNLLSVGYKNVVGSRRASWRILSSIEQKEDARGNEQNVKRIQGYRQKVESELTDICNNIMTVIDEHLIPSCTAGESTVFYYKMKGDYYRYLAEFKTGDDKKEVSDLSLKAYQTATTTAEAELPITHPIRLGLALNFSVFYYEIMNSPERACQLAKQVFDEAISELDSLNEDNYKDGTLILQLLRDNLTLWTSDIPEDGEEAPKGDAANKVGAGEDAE
UniProt P93214: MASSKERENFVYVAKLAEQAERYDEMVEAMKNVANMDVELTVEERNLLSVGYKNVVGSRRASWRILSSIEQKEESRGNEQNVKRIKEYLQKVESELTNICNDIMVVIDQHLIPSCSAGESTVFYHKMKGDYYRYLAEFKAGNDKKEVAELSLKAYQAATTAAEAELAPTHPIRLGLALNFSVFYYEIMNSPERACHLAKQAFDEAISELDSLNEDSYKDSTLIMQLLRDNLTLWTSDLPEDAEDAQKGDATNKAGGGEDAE

The target in experiment [1] is TFT10-GFP (tomato) (UniProt P93207). The experiment is described as follows: co-IP; constructs co-expressed in N. benthamiana leaves; extract incubated with GFP-Trap, Myc-Trap, anti-FLAG M2 or anti-HA agarose beads for 2 h at 4 °C, five washes, immunoblot; the Prf-Pto pair was tested with and without AvrPto co-expressed.
The target in experiment [2] is TFT2-GFP (tomato) (UniProt P93208). The experiment is described as above.
Experiment [3] deals with TFT4-GFP (tomato) (UniProt P42652). The description is as above.
Experiment [4] concerns the target T1, TFT5-GFP (tomato) (UniProt P93210).
T1 sequence: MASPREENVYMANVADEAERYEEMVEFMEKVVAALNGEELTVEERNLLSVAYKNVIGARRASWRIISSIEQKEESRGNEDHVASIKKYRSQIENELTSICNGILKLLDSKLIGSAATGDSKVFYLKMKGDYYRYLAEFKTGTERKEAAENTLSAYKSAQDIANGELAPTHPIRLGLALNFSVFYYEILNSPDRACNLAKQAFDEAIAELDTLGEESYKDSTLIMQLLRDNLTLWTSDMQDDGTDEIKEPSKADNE
The experiment is described as above.

For experiment [5], the target named is TFT6-GFP (tomato) (UniProt P93211). The experiment is described as above.
Experiment [6] concerns the target TFT7-GFP (tomato) (UniProt P93212). The experiment is described as above.
Experiment [7] addresses TFT8-GFP (tomato) (UniProt P93213). The description is as above.
Experiment [8] addresses TFT9-GFP (tomato) (UniProt P93214). The experiment is described as above.
The target of experiment [9] is T2, TFT3-GFP (tomato) (UniProt P93209).
T2 sequence: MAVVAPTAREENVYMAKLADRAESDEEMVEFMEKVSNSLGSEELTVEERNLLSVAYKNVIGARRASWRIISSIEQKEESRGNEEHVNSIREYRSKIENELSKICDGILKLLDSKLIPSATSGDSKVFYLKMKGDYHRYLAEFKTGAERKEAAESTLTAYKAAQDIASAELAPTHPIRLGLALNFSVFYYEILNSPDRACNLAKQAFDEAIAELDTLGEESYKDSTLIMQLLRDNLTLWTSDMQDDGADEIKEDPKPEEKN
Described as above.

The target of experiment [10] is T3, TFT1-GFP (tomato) (UniProt P93206).
T3 sequence: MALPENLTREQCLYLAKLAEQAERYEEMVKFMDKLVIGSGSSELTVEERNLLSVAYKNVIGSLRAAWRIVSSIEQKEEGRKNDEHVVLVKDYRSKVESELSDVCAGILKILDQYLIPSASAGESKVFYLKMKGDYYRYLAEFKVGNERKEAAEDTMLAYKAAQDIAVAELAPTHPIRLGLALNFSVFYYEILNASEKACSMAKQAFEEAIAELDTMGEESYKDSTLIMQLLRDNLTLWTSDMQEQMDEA
The description is as above.

Experiment [11] concerns the target T4, TFT1-Myc (tomato) (UniProt P93206).
T4 sequence: T3 sequence
The description is as above.

Experiment [12] has as its target TFT7-GFP (tomato) (UniProt P93212). Described as above. This is another data set of the same source.
For experiment [13], the target named is T5, TFT1, split-luciferase fusion (tomato) (UniProt P93206).
T5 sequence: T3 sequence
The experiment is described as follows: split reporter; split-luciferase; NLUC and CLUC fusions co-infiltrated into N. benthamiana leaves; luminescence imaged 3 days post-infiltration.

Experiment [14] addresses T6, TFT3, split-luciferase fusion (tomato) (UniProt P93209).
T6 sequence: T2 sequence
The experiment is described as above.

Where a chain is given by its changes, count along the chain named. Numbers in names are those of the source. Like-named read-outs stand apart in the source and are kept apart here. These are yes or no findings as the source states them, for the method shown. In cells and extracts the contact can be indirect. Some results given as binding are weak or reduced against the parent protein; the word gives no strength. For some assays here: Tags and fused reporters may be left off the sequences shown.

Consider TFT3-FLAG (from UniProt P93209 1-260), for which the binding result in experiment [1], in [2], in experiment [3], in experiment [4], in [5] and in [6] was “no binding” in each case. Besides, the binding result in [7] and in [8] was “no binding” each time.

B1: TFT3-GFP (protein, UniProt P93209 1-260)
chain: T2 sequence
For B1, the binding result in [9] was “binds”.

B2: TFT3-FLAG (protein, UniProt P93209 1-260)
chain: T2 sequence
For the molecule B2, the binding result in experiment [10] is “binds”.

B3: Pto-FLAG (enzyme, UniProt Q40234 1-321)
chain: MGSKYSKATNSINDALSSSYLVPFESYRVPLVDLEEATNNFDHKFLIGHGVFGKVYKGVLRDGAKVALKRRTPESSQGIEEFETEIETLSFCRHPHLVSLIGFCDERNEMILIYKYMENGNLKRHLYGSDLPTMSMSWEQRLEICIGAARGLHYLHTRAIIHRDVKSINILLDENFVPKITDFGISKKGTELDQTHLSTVVKGTLGYIDPEYFIKGRLTEKSDVYSFGVVLFEVLCARSAIVQSLPREMVNLAEWAVESHNNGQLEQIVDPNLADKIRPESLRKFGDTAVKCLALSSEDRPSMGDVLWKLEYALRLQESVI
As for B3, the binding result in experiment [10] was “binds”; in experiment [11], “binds”; in experiment [9], “binds”; in experiment [12], “no binding”.

B4: Pto^D164N-FLAG (enzyme, UniProt Q40234 1-321)
chain: B3 chain with D164N
As for B4, the binding entry in experiment [11] and in [9] was “binds” each time.

B5: Pto^L205D (enzyme, UniProt Q40234 1-321)
chain: B3 chain with L205D
With B5, in experiment [9], the binding result is listed as “binds”.

B6: Pto^S198T199/AA (enzyme, UniProt Q40234 1-321)
chain: B3 chain with S198A, T199A
Regarding B6, the binding result in [9] is reported as “binds”.

B7: Pto, split-luciferase fusion (enzyme, UniProt Q40234 1-321)
chain: B3 chain
B7: the binding result in experiment [13] and in experiment [14] was “binds” throughout.
